Measurements as given in the antibiotic and cytotoxicity screens of Wong et al. (2023).
Some of the results follow.

How the values were obtained:
[1] = system: HSkMC (human skeletal muscle cells); assay: cytotoxicity call (relative viability < 0.9); conditions: 10 µM
[2] = system: HepG2; assay: cytotoxicity call (relative viability < 0.9); conditions: 10 µM
[3] = system: S. aureus RN4220; assay: growth inhibition call (relative growth <= 0.2); conditions: 50 µM

| Compound | cytotoxicity call [1] | cytotoxicity call [2] | growth inhibition call [3] |
| --- | --- | --- | --- |
| COc1ccccc1S(=O)(=O)N[C@@H]1CC[C@H](CCNC(=O)C2CCOCC2)O[C@@H]1CO | inactive | inactive | inactive |
| C[C@@H]1CN([C@H](C)CO)C(=O)Cc2cc(NC(=O)Nc3ccc(C(F)(F)F)cc3)ccc2O[C@@H]1CN(C)C(=O)NC1CCCCC1 | active | active | inactive |
| COc1ccc(S(=O)(=O)N(C)C[C@@H]2Oc3ccc(NC(=O)Nc4cccc5ccccc45)cc3C(=O)N([C@H](C)CO)C[C@@H]2C)cc1 | inactive | inactive | inactive |
| C[C@@H]1CN([C@@H](C)CO)C(=O)Cc2cc(NC(=O)Cc3cn(C)c4ccccc34)ccc2O[C@H]1CN(C)C | inactive | inactive | inactive |
| COc1ccc(NC(=O)N(C)C[C@@H]2Oc3c(NS(C)(=O)=O)cccc3C(=O)N([C@@H](C)CO)C[C@H]2C)cc1 | inactive | inactive | inactive |
| CCS(=O)(=O)Nc1ccc2c(c1)C(=O)N(C)[C@@H]1CC[C@@H](CC(=O)N[C@H]3CCN(Cc4ccccc4)C3)O[C@H]1CO2 | inactive | inactive | inactive |
| C(=N\c1nnc2nc[nH]n12)/c1ccco1 | inactive | inactive | inactive |
| Cc1ccc(S(=O)(=O)NCCC(=O)N2CCOCCOCCOCC2)cc1 | inactive | inactive | inactive |
| Cc1noc(C)c1NC(=O)N(C)C[C@H]1Oc2c(NS(=O)(=O)c3c(C)noc3C)cccc2C(=O)N([C@H](C)CO)C[C@H]1C | inactive | inactive | inactive |
| C[C@H](CO)N1C[C@H](C)[C@@H](CN(C)S(C)(=O)=O)Oc2ccc(NC(=O)Nc3ccc(F)cc3)cc2CC1=O | inactive | inactive | inactive |
| Cc1noc(C)c1S(=O)(=O)Nc1ccc2c(c1)C(=O)N([C@@H](C)CO)C[C@H](C)[C@H](CN(C)C)OCCCC[C@@H](C)O2 | inactive | inactive | inactive |
| COc1ccc([Si](C)(C)[C@H]2[C@H](CC(=O)N3Cc4ccccc4C[C@H]3CO)O[C@@]3(C(=O)N(Cc4cccc(I)c4)c4ccccc43)[C@@H]2C)cc1 | inactive | inactive | inactive |
| C[C@@H]1CN([C@@H](C)CO)C(=O)c2cc(NC(=O)CCCCCC(=O)Nc3ccccc3N)ccc2O[C@@H]1CN(C)C(=O)Nc1ccccc1 | inactive | inactive | inactive |
| CCC(=O)N[C@@H]1CC[C@H](CC(=O)OC)O[C@H]1CO | inactive | inactive | inactive |
| Cc1ccc(S(=O)(=O)N(C)C[C@H]2Oc3ccc(NS(=O)(=O)c4ccc(F)cc4)cc3C(=O)N([C@@H](C)CO)C[C@H]2C)cc1 | inactive | inactive | inactive |
| C[C@H](CO)N1C[C@H](C)[C@@H](CN(C)S(=O)(=O)c2cn(C)cn2)Oc2ccc(NC(=O)Nc3ccc(F)cc3)cc2CC1=O | inactive | inactive | inactive |
| Cn1nnc2c1[C@H](COCCN1CCCC1)CN(S(C)(=O)=O)C2 | inactive | inactive | inactive |
| COc1cccc(NC(=O)N(C)C[C@@H]2OCc3ccccc3-c3c(n(C)c4ccccc34)C(=O)N([C@H](C)CO)C[C@@H]2C)c1 | inactive | inactive | inactive |
| C[C@H]1CN([C@@H](C)CO)C(=O)CCCn2nncc2CO[C@H]1CN(C)Cc1cccc2c1OCCCO2 | inactive | inactive | inactive |
| COc1ccc(S(=O)(=O)Nc2ccc3c(c2)CC(=O)N([C@@H](C)CO)C[C@H](C)[C@H](CN(C)S(=O)(=O)c2ccc(OC)cc2)O3)cc1 | inactive | inactive | inactive |
| C[C@@H]1CN([C@@H](C)CO)C(=O)c2cc(C#Cc3cccnc3)cnc2O[C@H]1CN(C)Cc1ccc(F)cc1 | inactive | inactive | inactive |
| C[C@@H]1CN([C@@H](C)CO)C(=O)Cc2cc(NS(C)(=O)=O)ccc2O[C@H]1CN(C)S(C)(=O)=O | inactive | inactive | inactive |
| C[C@H](CO)N1C[C@H](C)[C@H](CN(C)Cc2ccc3c(c2)OCO3)Oc2c(NC(=O)c3cnccn3)cccc2C1=O | inactive | inactive | inactive |
| CN1C(=O)c2cc(NS(=O)(=O)c3ccc(F)cc3)ccc2OC[C@@H]2O[C@@H](CC(=O)NCC(F)(F)F)CC[C@H]21 | inactive | inactive | inactive |
| CC(=O)c1ccc2ccccc2c1 | inactive | inactive | inactive |
| COc1cccc(S(=O)(=O)N(C)C[C@H]2Oc3ncc(C#CC(C)C)cc3C(=O)N([C@@H](C)CO)C[C@H]2C)c1 | inactive | inactive | inactive |
| C[C@H](CO)N1C[C@H](C)[C@@H](CN(C)C(=O)Nc2ccc(F)cc2)OCCCC[C@H](C)Oc2ccc(NS(=O)(=O)c3ccccc3)cc2C1=O | inactive | inactive | inactive |

| Compound | cytotoxicity call [1] | cytotoxicity call [2] | growth inhibition call [3] |
| --- | --- | --- | --- |
| Cc1cccc(C)c1Nc1nc2c(C)cc(C)c(C)c2s1 | inactive | inactive | inactive |
| C[C@H](CO)N1C[C@H](C)[C@@H](CN(C)S(=O)(=O)c2ccc(F)cc2)Oc2c(NS(=O)(=O)c3ccc(F)cc3)cccc2C1=O | inactive | inactive | inactive |
| C[C@@H]1CN([C@@H](C)CO)C(=O)c2c(c3ccccc3n2C)-c2ccccc2CO[C@@H]1CN(C)C(=O)CCC(F)(F)F | inactive | inactive | inactive |
| C[C@H](CO)N1C[C@H](C)[C@H](CN(C)Cc2ccncc2)Oc2ccc(NC(=O)Nc3ccc(C(F)(F)F)cc3)cc2CC1=O | inactive | active | inactive |
| C[C@@H]1CN([C@@H](C)CO)C(=O)CCCn2nncc2CO[C@H]1CN(C)C(=O)Nc1cccc2ccccc12 | inactive | inactive | inactive |
| C[C@H](CO)N1C[C@H](C)[C@@H](CN(C)C(=O)CCC(F)(F)F)OCCCC[C@H](C)Oc2ccc(NC(=O)Nc3ccc4c(c3)OCO4)cc2C1=O | inactive | inactive | inactive |
| CCCNC(C)(C)COC(=O)c1ccccc1.Cl | inactive | inactive | inactive |
| C[C@@H]1CN([C@H](C)CO)S(=O)(=O)c2ccc(C3=CCCC3)cc2O[C@@H]1CN(C)C(=O)Cc1ccncc1 | inactive | inactive | inactive |
| COC(=O)C1=C2CC[C@H](COC(=O)NCCCCCC(=O)NO)NC(=O)N[C@@H](Cc3ccccc3)c3cn(nn3)C[C@@H](Cc3ccccc3)NC(=O)c3oc(c(C(=O)OC)c3C(=O)OC)CC[C@H](COC(=O)NCCCCCC(=O)NO)NC(=O)N[C@@H](Cc3ccccc3)c3cn(nn3)C[C@@H](Cc3ccccc3)NC(=O)C(=C1C(=O)OC)O2 | inactive | inactive | inactive |
| Nc1nnc(C(F)(F)F)[nH]1 | inactive | inactive | inactive |
| C[C@H]1CN([C@@H](C)CO)C(=O)Cc2cc(NC(=O)CCCN(C)C)ccc2O[C@@H]1CN(C)S(=O)(=O)c1cn(C)cn1 | inactive | inactive | inactive |
| C[C@@H]1CN([C@H](C)CO)C(=O)c2cccc(NC(=O)c3ccc(-c4nccs4)cc3)c2O[C@@H]1CN(C)Cc1ccccc1 | inactive | inactive | inactive |
| C[C@@H]1CCCCO[C@H](CN(C)S(=O)(=O)c2ccc(Cl)cc2)[C@@H](C)CN([C@H](C)CO)C(=O)c2cc(NS(=O)(=O)c3ccccc3)ccc2O1 | inactive | inactive | inactive |
| C[C@@H]1CN([C@H](C)CO)C(=O)c2cc(NC(=O)CCCN(C)C)ccc2O[C@@H](C)CCCCO[C@H]1CN(C)Cc1ccc(C(F)(F)F)cc1 | inactive | inactive | inactive |
| C[C@@H]1CN([C@H](C)CO)C(=O)c2cccc(NC(=O)C3CCOCC3)c2O[C@@H]1CN(C)S(=O)(=O)c1cccs1 | inactive | inactive | inactive |
| CC(C)NC(=O)Nc1ccc2c(c1)CC(=O)N([C@@H](C)CO)C[C@@H](C)[C@H](CN(C)Cc1ccc(C(=O)O)cc1)O2 | inactive | inactive | inactive |
| C[C@H](CO)N1C[C@H](C)[C@@H](CN(C)Cc2ccc3c(c2)OCO3)Oc2ccc(NC(=O)c3ccncc3)cc2C1=O | inactive | inactive | inactive |
| CO[C@@H]1CN(C)C(=O)c2ccc(NC(=O)Nc3ccccc3)cc2OC[C@@H](C)N(C(=O)CN(C)C)C[C@@H]1C | inactive | inactive | inactive |
| COc1cc(-c2coc3cc(OCc4ccccc4)c(OC)c(O)c3c2=O)cc(OCc2ccccc2)c1OC | inactive | inactive | inactive |
| O=C(/C=C/c1cccc(-c2cn(CC[C@@H]3OC(=O)[C@H](Cc4ccccc4)N4CC5=CC(=O)[C@H](C6CC6)[C@H]5[C@H]34)nn2)c1)NO | inactive | inactive | inactive |
| O=C(O)/C=C(\CC(=O)O)C(=O)O | inactive | inactive | inactive |
| COc1ccc(S(=O)(=O)Nc2ccc3c(c2)C(=O)N([C@@H](C)CO)C[C@@H](C)[C@H](CN(C)C(=O)Nc2cccc4ccccc24)OCCCC[C@H](C)O3)cc1 | inactive | inactive | inactive |
| COc1ccc(S(=O)(=O)Nc2ccc3c(c2)[C@H]2C[C@H](CC(=O)NCC4CC4)O[C@@H](CO)[C@H]2O3)cc1 | inactive | inactive | inactive |
| C[C@H](CO)N1C[C@H](C)[C@H](CN(C)C(=O)NC2CCCCC2)Oc2ccc(NC(=O)Cn3cnnn3)cc2C1=O | inactive | inactive | inactive |
| Cc1cc(C(=O)Nc2cccc3c2O[C@@H](CN(C)C(=O)Nc2c(C)noc2C)[C@H](C)CN([C@H](C)CO)C3=O)n(C)n1 | inactive | inactive | inactive |
| COC(=O)NC(C(=O)NC(Cc1ccccc1)C(O)CN(Cc1ccc(-c2ccccn2)cc1)NC(=O)C(NC(=O)OC)C(C)(C)C)C(C)(C)C.O=S(=O)(O)O (configuration not stated) | inactive | inactive | inactive |
| C[C@@H]1CN([C@@H](C)CO)S(=O)(=O)c2ccc(C#Cc3ccc(F)cc3)cc2O[C@@H]1CN(C)S(=O)(=O)c1cn(C)cn1 | inactive | inactive | inactive |
